Where a name gives a salt, the structure may show the parent alone. ± gives the standard deviation of the averaged measurements. Over roughly 3,200 compounds, “nuclei count (viability) relative to DMSO” has its median near 99; the lowest 2% begin near 16. Some of the results follow.
system: U2OS; assay: nuclei count (viability) relative to DMSO (% of DMSO); higher = more viable cells; conditions: 10 µM; 24 h
Method: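 Primary image-based screen in U2OS cells: compounds at 10 uM for 24 h, then a 1 h o-propargyl-puromycin (OPP) pulse, click labelling, and high-throughput microscopy. Mean cytoplasmic OPP intensity and nuclei count were normalised to DMSO wells within each plate (DMSO = 100) and averaged over triplicate plates.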

| Structure (SMILES) | nuclei count |
| --- | --- |
| C=C1C[C@@]2(O)O[C@@]3(C[C@H]2C(C)C)[C@@H](C)CC[C@@H]13 [Curcumol] | 98.9 |
| Cn1cc(-c2cnn3c(N)c(Br)c([C@@H]4CCCNC4)nc23)cn1 | 72.5 |
| N[C@@H]1CONC1=O [D-cycloserine] | 101 |
| CCCSc1nc(N[C@@H]2C[C@H]2c2ccc(F)c(F)c2)c2nnn([C@@H]3C[C@H](OCCO)[C@@H](O)[C@H]3O)c2n1 [Ticagrelor] | 99.4 |
| C=CC(=O)Nc1cccc(Nc2nc(Nc3ccc(Oc4ccnc(C(=O)NC)c4)cc3)ncc2F)c1 | 63.4 |
| CCCOC(=O)c1cc(O)c(O)c(O)c1 [N-Propyl gallate] | 82.9 |
| N=C(N)Nc1ccc(C(=O)Oc2ccc3cc(C(=N)N)ccc3c2)cc1 [Nafamostat mesylate] | 99.1 |
| NC(N)=Nc1ccc(Cl)cc1 [4-Chlorophenylguanidine hydrochloride] | 108 |
| O=C(O)Cc1nn(Cc2ccc(Br)cc2F)c(=O)c2ccccc12 [Statil] | 99.8 |
| CC(=O)Nc1nc2c(Oc3cc(-c4ccc(C(F)(F)F)cc4)ncn3)cccc2s1 | 91.5 |
| N[C@@H](Cc1c[nH]c2ccc(O)cc12)C(=O)O [5-hydroxytryptophan (5-HTP)] | 104 |
| CN1C[C@@H]2C[C@H]1CN2c1cc2c(cc1F)c(=O)c(C(=O)O)cn2C1CC1 [Danofloxacin Mesylate] | 94.6 |
| CC(C)n1nc(-c2ccc3oc(N)nc3c2)c2c(N)ncnc21 | 76.12 ± 0.4 |
| Clc1ccc(Cn2c(CN3CCCC3)nc3ccccc32)cc1 [Clemizole hydrochloride] | 104 |
| COc1cc2nc(N(C)CCCNC(=O)C3CCCO3)nc(N)c2cc1OC (configuration not stated) [Alfuzosin hydrochloride] | 98.1 |
| CC1(C)CC(=O)c2c(C(F)(F)F)nn(-c3ccc(C(N)=O)c(N[C@H]4CC[C@H](O)CC4)c3)c2C1 | 53.5 |
| O=C(O)/C=C/c1ccc(O)c(O)c1 [Caffeic acid] | 110 |
| CCCCc1nc2cc(/C=C/C(=O)NO)ccc2n1CCN(CC)CC [SB939 (Pracinostat)] | 27.5 |
| Cc1ccc(CC2(O)CCN(CCOc3ccc(O)cc3)CC2)cc1 | 87.3 |
| O=C1Nc2ccccc2/C1=C1/Nc2ccccc2C1=O [Indirubin] | 110 |
| N=C(N)NC(=O)Cc1c(Cl)cccc1Cl [Guanfacine hydrochloride] | 105 ± 5.4 |
| O=C(O)C(O)Cc1ccc(O)c(O)c1 (configuration not stated) [Sodium Danshensu] | 93.7 |
| COC(=O)C1=C(C)NC(C)=C(C(=O)NCCCN2CCC(c3ccccc3)(c3ccccc3)CC2)C1c1ccc([N+](=O)[O-])cc1 (configuration not stated) | 55.1 |
| Oc1ccc(OC2CCCCO2)cc1 (configuration not stated) [Deoxyarbutin] | 91.1 |

| Structure (SMILES) | nuclei count |
| --- | --- |
| Nc1cccc2c1C(=O)N(C1CCC(=O)NC1=O)C2=O (configuration not stated) [Pomalidomide] | 75.7 |
| O=C(/C=C/c1ccccc1)NC(NC(=S)Nc1cccc2cccnc12)C(Cl)(Cl)Cl (configuration not stated) [Salubrinal] | 100 |
| CC(=O)O[C@@]12CO[C@@H]1C[C@H](O)[C@@]1(C)C(=O)[C@H](O)C3=C(C)[C@@H](OC(=O)[C@H](O)[C@@H](NC(=O)OC(C)(C)C)c4ccccc4)C[C@@](O)([C@@H](OC(=O)c4ccccc4)[C@H]21)C3(C)C [Docetaxel] | 41 |
| CC(=O)O[C@@]12CO[C@@H]1C[C@H](O)[C@@]1(C)C(=O)[C@H](O)C3=C(C)[C@@H](OC(=O)[C@H](O)[C@@H](NC(=O)OC(C)(C)C)c4ccccc4)C[C@@](O)([C@@H](OC(=O)c4ccccc4)[C@H]21)C3(C)C [Docetaxel (Taxotere)] | 48 |
| O=C(NCCCN1CCC2(CC1)OCc1ccccc12)[C@H]1CCCN1Cc1ccccc1 | 105 |
| Nc1ccn([C@@H]2O[C@H](CO)[C@@H](O)C2(F)F)c(=O)n1 [Gemcitabine HCl (Gemzar)] | 60.7 |
| Nc1ccn([C@@H]2O[C@H](CO)[C@@H](O)C2(F)F)c(=O)n1 [Gemcitabine] | 54.5 |
| COc1ccccc1N1CCN(CCN(C(=O)C2CCCCC2)c2ccccn2)CC1 | 101 |
| CN1C(=O)CC(c2ccccc2)C1=O (configuration not stated) [Phensuximide] | 107 |
| CC1CNc2c(cccc2S(=O)(=O)N[C@@H](CCCNC(=N)N)C(=O)N2CC[C@@H](C)C[C@@H]2C(=O)O)C1 (some centres not stated) [Argatroban] | 110 ± 1.2 |
| CN(C)CCN(Cc1ccccc1)c1ccccn1 [Tripelennamine hydrochloride] | 104 |
| Fc1ccc(Cl)cc1-c1nc(Nc2ccncc2)c2nccnc2n1 | 93.8 |
| CO[C@H]1C[C@@H]2CC[C@@H](C)[C@@](O)(O2)C(=O)C(=O)N2CCCC[C@H]2C(=O)O[C@H]([C@H](C)C[C@@H]2CC[C@@H](OCCO)[C@H](OC)C2)CC(=O)[C@H](C)/C=C(\C)[C@@H](O)[C@@H](OC)C(=O)[C@H](C)C[C@H](C)/C=C/C=C/C=C/1C [Everolimus (RAD001)] | 94.1 ± 4.5 |
| C[n+]1cc2c3c(ccc2c2ccc4cc5c(cc4c21)OCO5)OCO3 [Sanguinarine chloride] | 12 |
| Cc1cc(C)c(Nc2ccnc(Nc3ccc(C#N)cc3)n2)c(C)c1 [Dapivirine] | 58.9 |
| O=C(c1ccc(Nc2nccc(-c3cc4ccccc4s3)n2)cc1)N1CCC(N2CCCC2)CC1 | 16.6 |
| Clc1ccc(CSC(Cn2ccnc2)c2ccc(Cl)cc2Cl)cc1 (configuration not stated) [Sulconazole nitrate] | 88.5 |
| Nc1ncnc2c1ncn2[C@@H]1O[C@H](CO)[C@@H](O)[C@H]1O [Adenosine (Adenocard)] | 93.8 |
| CCCN(CCC)S(=O)(=O)c1ccc(C(=O)O)cc1 [Probenecid] | 93.4 |
| CCNC(=O)Nc1ccc(-c2nc3c(c(N4CCOC[C@@H]4C)n2)CCN(C2COC2)C3)cc1 | 75.4 ± 5.5 |
| C[C@]12CC[C@@H]3c4ccc(O)cc4CC[C@H]3[C@@H]1CC[C@@H]2O [Estradiol] | 101 |
| C[C@]12CC[C@@H]3c4ccc(O)cc4CC[C@H]3[C@@H]1CC[C@@H]2O [Estradiol-17 beta] | 98.8 |
| C[C@]12CC[C@@H]3c4ccc(O)cc4CC[C@H]3[C@@H]1CC[C@@H]2O [17b-Estradiol] | 90.9 |
